The supplement of paper PMC4166925
± gives the standard deviation of the averaged measurements. In all, about 33,000 sequences were measured (“E-score (dimensionless, -0.5 to 0.5)”: median about -0.046, highest 2% from about 0.36 on). The list shows a part of the results.

These sequences were tested on T1, SpTbr T-box DNA-binding domain (GST fusion) (assay: PBM E-score of 8-mer (E-score (dimensionless, -0.5 to 0.5)); Tbr is Tbrain of the sea star Patiria miniata (Pm) or the sea urchin Strongylocentrotus purpuratus (Sp); higher = stronger binding preference; most listed sequences are background and not binding sites). Conditions: the construct has about 5 more residues each side.
T1 sequence: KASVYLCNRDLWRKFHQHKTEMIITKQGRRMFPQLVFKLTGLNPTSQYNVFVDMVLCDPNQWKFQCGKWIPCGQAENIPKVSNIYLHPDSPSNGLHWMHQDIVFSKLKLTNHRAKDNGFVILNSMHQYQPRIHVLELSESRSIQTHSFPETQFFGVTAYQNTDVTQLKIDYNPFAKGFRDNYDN
In short: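 Universal Agilent oligonucleotide arrays, made double-stranded by primer extension, were incubated with 200 nM GST-fused Tbr T-box DNA-binding domain in PBS (pH 7.5). The protein was expressed in BL21 E. coli at 20 °C and purified by glutathione affinity chromatography. After scanning and quantification, the Universal PBM Analysis Suite assigned an enrichment E-score to each ungapped 8-mer, averaged over duplicate arrays.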

In order of falling “PBM E-score of 8-mer” value:
1. GCAACACC  0.439 ± 0.0069
2. GGGTGACA  0.4258 ± 0.0018
3. AAGTGCTA  0.419 ± 0.014
4. GGTGCGGA  0.404 ± 0.023
5. ATCGCGCC  0.4021 ± 0.0011
6. CACCTTGC  0.389 ± 0.013
7. CACCTGAC  0.374 ± 0.0049
8. TCGCGAGA  0.367 ± 0.01
9. GGTGGCAC  0.3544 ± 0.0029
10. TCGCGACA  0.322 ± 0.0016
11. ACACAGTG  0.285 ± 0.015
12. ATGTCAAC  0.267 ± 0.024
13. CAAGTGGC  0.246 ± 0.03
14. TAAACACA  0.231 ± 0.044
15. CGCGCTTC  0.228 ± 0.043
16. AACAGCTT  0.221 ± 0.043
17. CTATTACA  0.206 ± 0.015
18. AGATAGTG  0.203 ± 0.021
19. ACGCGCCA  0.201 ± 0.019
20. CGCGCAAA  0.193 ± 0.03
21. GCGTTGCA  0.191 ± 0.011
22. ACTGTCGG  0.189 ± 0.051
23. AACCTCAC  0.182 ± 0.034
24. AATGTGAA  0.179 ± 0.065
25. CTACGATA  0.151 ± 0.048
26. GTTCGCTA  0.15 ± 0.0052
27. CTGTGCAC  0.15 ± 0.047
28. ACCCTGAA  0.147 ± 0.021
29. AAGGGTGG  0.146 ± 0.028
30. CGCCCGAG  0.142 ± 0.038
31. TCGCAAAA  0.132 ± 0.0091
32. GCCGCGCC  0.13 ± 0.042
33. ACAGTATC  0.113 ± 0.0084
34. AACTACAA  0.107 ± 0.086
35. GTGGCGCA  0.107 ± 0.091
36. CTCCATCA  0.106 ± 0.12
37. CAAACAGC  0.105 ± 0.062
38. CGCGCATC  0.103 ± 0.018
39. CAACTATC  0.0911 ± 0.023
40. CCACCCAA  0.0907 ± 0.022
41. GCACCGTA  0.0905 ± 0.09
42. ATCACGTC  0.086 ± 0.0023
43. CGAAACCG  0.0826 ± 0.038
44. AAGCATGA  0.0805 ± 0.033
45. CAACAAGG  0.0674 ± 0.0062
46. ACTGCGCT  0.0647 ± 0.021
47. AGGTTATC  0.0555 ± 0.019
48. ATATCATC  0.051 ± 0.031
49. GCTACCAA  0.047 ± 0.019
50. ACTGGAGG  0.0415 ± 0.012
51. CGGAGCGA  0.0335 ± 0.012
52. GGCGATAC  0.0327 ± 0.059
53. ATAACATA  0.0324 ± 0.023
54. CAAGGGCG  0.0308 ± 0.03
55. TCCACTAA  0.0302 ± 0.044
56. AGCAGAAT  0.0268 ± 0.0024
57. AATAACGG  0.0267 ± 0.066
58. AATGATTG  0.021 ± 0.017
59. ACGCTTGG  0.0203 ± 0.037
60. ACGTATGC  0.0191 ± 0.0035
61. TCGCTCAA  0.0108 ± 0.038
62. AATGATGT  0.00537 ± 0.014
63. ATAAGCTG  0.00517 ± 0.008
64. ATATATAG  0.000495 ± 0.06
65. CCACCACG  -1e-05 ± 0.011
66. AGGGAACT  -0.00114 ± 0.059
67. CGCACAAA  -0.00615 ± 0.05
68. CTAGTATA  -0.00825 ± 0.1
69. CGGTTTAG  -0.0144 ± 0.033
70. CTCCTGTC  -0.0147 ± 0.043
71. ACCCCGAT  -0.0152 ± 0.031
72. AGCAACGA  -0.0157 ± 0.0052
73. AGCGTCGA  -0.0175 ± 0.056
74. GCCACAGA  -0.0181 ± 0.047
75. ATAGGGAC  -0.0192 ± 0.038
76. TAAGAACA  -0.0304 ± 0.082
77. GAAGCCTC  -0.0324 ± 0.11
78. ATTCATGC  -0.0337 ± 0.021
79. GCGTCGGA  -0.036 ± 0.031
80. GATACGCA  -0.0423 ± 0.00059
81. CAAACAAA  -0.0454 ± 0.038
82. ATCCAGCG  -0.0457 ± 0.042
83. AGCCACCA  -0.0464 ± 0.031
84. CGGCTCCC  -0.04913 ± 0.00011
85. CGATGGTA  -0.0517 ± 0.023
86. AATGGTGG  -0.0541 ± 0.078
87. AGGGTACT  -0.0543 ± 0.024
88. TCTAATAA  -0.0597 ± 0.026
89. GAATCAGA  -0.0679 ± 0.055
90. GACGATGC  -0.0692 ± 0.033
91. AAAGCCTG  -0.0703 ± 0.037
92. ATCTGGGA  -0.075 ± 0.11
93. CTAAACCA  -0.0751 ± 0.046
94. GCCAAGAA  -0.0758 ± 0.011
95. GGGGCACA  -0.0759 ± 0.03
96. AATGAAAA  -0.0766 ± 0.12
97. CGACGGTC  -0.0771 ± 0.066
98. TCGTACCA  -0.0779 ± 0.12
99. AGATCGGG  -0.08 ± 0.0082
100. ACTCAGAG  -0.0809 ± 0.032
101. ACTGCGTA  -0.0821 ± 0.082
102. ACAAAGCC  -0.0854 ± 0.036
103. CCGTCCAC  -0.0917 ± 0.0043
104. CTGGGTAA  -0.0932 ± 0.021
105. GCCGTTAC  -0.094 ± 0.051
106. CCTATTCC  -0.0953 ± 0.027
107. GCTCTAAA  -0.1 ± 0.025
108. GGTTGGAC  -0.1 ± 0.047
109. AGGCTTCA  -0.105 ± 0.024
110. AGACTGTA  -0.109 ± 0.032
111. TCGTTTAA  -0.111 ± 0.006
112. ACGAACCT  -0.113 ± 0.08
113. CTCCTTCC  -0.114 ± 0.036
114. AGACTCAT  -0.116 ± 0.033
115. CCTAGAAG  -0.116 ± 0.088
116. AAAAATGA  -0.118 ± 0.086
117. GATCAACC  -0.12 ± 0.0035
118. CAAAGGAC  -0.12 ± 0.056
119. TAGGCCTA  -0.124 ± 0.14
120. AAGGGAGA  -0.13 ± 0.033
121. AGCTTTCA  -0.132 ± 0.045
122. TGGCTACA  -0.132 ± 0.023
123. ACGCAGAT  -0.133 ± 0.0062
124. AGGTTCGA  -0.135 ± 0.027
125. AATGATGA  -0.139 ± 0.056
126. TGAGTCCA  -0.14 ± 0.039
127. GACGGACC  -0.14 ± 0.031
128. AACCATAT  -0.143 ± 0.016
129. GGAGTAAA  -0.148 ± 0.013
130. GAGCAGGA  -0.149 ± 0.092
131. ATGTTCCA  -0.15 ± 0.0063
132. GCTGCATA  -0.15 ± 0.0083
133. GCCAAGCC  -0.153 ± 0.012
134. TCCAGCAA  -0.1526 ± 0.0014
135. GCCTTACC  -0.157 ± 0.023
136. CTGCTTGA  -0.163 ± 0.076
137. GTTCTTTA  -0.164 ± 0.051
138. AGTCGGAA  -0.166 ± 0.13
139. ATAAGGAG  -0.17 ± 0.13
140. AGTCAAGC  -0.172 ± 0.068
141. ATTGAGGA  -0.174 ± 0.086
142. TCTCAAAA  -0.176 ± 0.025
143. CTTACCGA  -0.181 ± 0.022
144. GGCAAGAA  -0.182 ± 0.068
145. CTGGGATA  -0.188 ± 0.098
146. ATTTTTAA  -0.188 ± 0.086
147. ACGGATTA  -0.191 ± 0.027
148. CCAGTCTC  -0.199 ± 0.0046
149. ATGAATAA  -0.2 ± 0.032
150. GGTTAGGA  -0.202 ± 0.017
151. ATTCGGGG  -0.21 ± 0.023
152. AATGGCCA  -0.211 ± 0.029
153. CAAGATTC  -0.217 ± 0.0083
154. ACTCCTAA  -0.22 ± 0.069
155. AGAATTTA  -0.243 ± 0.096
156. GCCTCGAA  -0.251 ± 0.017
157. GCTATGGA  -0.256 ± 0.036
158. AAGGGCCA  -0.259 ± 0.0051
159. AGCTACGG  -0.266 ± 0.021
160. AGCTAACT  -0.27 ± 0.067
161. ATTCGGAA  -0.271 ± 0.015
162. ATAAAAGA  -0.274 ± 0.02
163. AGTTCCGG  -0.2769 ± 0.00061
164. CCAGGGGA  -0.278 ± 0.008
165. TAGACATA  -0.281 ± 0.0072
166. CTGAATTC  -0.284 ± 0.014
167. ATATATGC  -0.293 ± 0.023
168. AATGGGCA  -0.298 ± 0.029
169. ACTCTGGA  -0.299 ± 0.026
170. TCCTGAAA  -0.301 ± 0.025
171. AGATAGAC  -0.335 ± 0.056
172. AGGATCCG  -0.367 ± 0.011
